The values that follow come from PMC7608744 (Genes & Development, 2020).

In this assay the target is Dnmt3a2 (residues 421–908; pXC531), ΔPWWP (mouse, UniProt O88508 part only). The assay is described as follows: co-purification of the complex over two affinity columns.

B1: Dnmt3b3 ([…]; pXC1032), ΔPWWP (domain or fragment)
chain: not shown
For the molecule B1, the binding result is on record as “binds”.
